# Source: the supplement of paper PMC10300432
# Recombinant human monoclonal antibodies (heavy:light variable regions). ELISA EC50 on the named antigen, from 10 µg/ml down; IC50 against spike pseudovirus on HT1080-ACE2 cells, 48 h; lower = stronger. Calls: IC50 above 1,000 ng/ml = non-neutralizing; EC50 above 1,000 ng/ml = non-binder.
# B1: C5087 (protein)
# chain 1: QVQLVQSGAEVKKPGSSVKVSCKASGDTFSSFAINWVRQAPGQGLEWMGRMFPMLGVATYAQGFKDRVTITADKSTSTVYMDLSSLRSEDTAVYYCARGMVAATPHYFDFWGQGTLVTVSS
# chain 2: EIVMTQSPDTLSVSPGERATLSCRASQSVTSNLAWYQQRPGQAPRLLIYGASTRATGVPARFSGSGSGTEFVLTISSLQSEDFAIYYCQQYDNWLTFGGGTKVEI
# B2: C5086 (protein)
# chain 1: EVQLVESGGGFIQPGGSLRLSCAASGLTVSSNYMNWVRQAPGKDLEWVSVMYAGGSTFYSESVKGRFTISRDNSKNTLYLQINSLRAEDTAVYYCARSIADDAFDVWGQGTMVTVSS
# chain 2: DIQLTQSPSFLSASVGDRVTITCRASQGINSYLAWYQQKPGKAPKLLIYTASTLQSGVPSRFSGSGSGTEFTLTISSLQPEDFATYYCQQLSTYPGFTFGPGTKVDIK
# B3: C5083 (protein)
# chain 1: EVQLVESGGGLVKPGGSLRLSCVASGFSFRNAWMTWVRQAPGKGLEWVGRINTETEGGTADYAAPVKGRFTISRDESENTLYLQMSSLKIEDTAVYYCSTSDLLHYYDYGMDVWGQGTTVTVSS
# chain 2: DIQMTQSPSTLSASVGDRVTITCRASQSVSSWLAWYQQKPGKAPKLLIYKASSLQSGVPSRFSGSGSGTEFTLTISSLQPDDFATYYCQQYDTYWWTFGQGTKVEIK
# B4: C5089 (protein)
# chain 1: QVQLQQWGAGLLKPSETLSLTCAVHGGSLSGYYWSWIRQPPGQGLEWIGEINHSGRDNYNSSLKSRVTMSVDMSKNQLSLELSSVTAADTAVYYCARGTYYYDSSAFGVNWFDPWGQGTLVTVSS
# chain 2: QSVLTQPPSVSGAPGQRVTISCTGSSSNLGAGYDVHWYQQLPGTAPKLLIYINNNRPSGVPDRFSGSKSGTSASLAITGLQAEDEADYYCQSYDTSVFAYVFGSGTKVTVL
# B5: C5084 (protein)
# chain 1: QVQLVQSGAEVKKPGASVKVSCQASGYSFSNQYMHWVRQAPGQGLEWMGIINPSAGSVTYAQKFQGRVTMTSDTSTSTVYMELSSLRSEDTAVYYCARDWGFIPSNNWLDPWGQGTLVTVSS
# chain 2: EIVLTQSPATLSLSPGERATLSCRASQSVSSYLAWYQQKPGQAPRLLIYDASKRATGIPARFSGSGSGTDFTLTISSLEPEDFAVYYCQQRSNWPPMYTFGQGTKLEIK
# B6: C5096 (protein)
# chain 1: QVQLQESGPGLVKPSETLSLTCTVSGGSISSNYWSWIRQPPGKGLEWIGSMYYSGSTNYNPSLKSRVTISVDTSKNQFSLKLSSVTAADTAVYYCARDGWGLRGYSGYDFLEPGFYDYWGQGILVTVSS
# chain 2: DIVMTQSPDSLAVSLGERATINCKSSQSVLYSSNNKNYLAWYQQKPGQPPKLLISWASTRESGVPDRFSGSGSGTDFTLTISSLQAEDVAVYFCQQYYGPPPTFGQGTKVEIK
# B7: C5092 (protein)
# chain 1: EVQLLESGGGLVQPGGSLRLSCVGSGFTFRNYAMSWVRQAPGKGLEWVSAISGDGDSTYYADSLKGRFSISRDNSMHTLYLRMNSLRVEDTARYFCAQGGGPHSSGWYEGFWFDPRGQGTLVTVSS
# chain 2: DIQMTQSPSTLSASVGDRVTITCRASQSISDWLAWYQQKPGKAPKLLVYKASTLESGVPSRFSGSGAGTDFTLTISSLQPDDFATYYCQQYNNYPCTFGQGTKLEIK
# B8: C5088 (protein)
# chain 1: QVQLVESGGGVVQPGRSLRLSCAASGFSFSHYGMHWVRQAPGKGLEWVAFIWFDGSKNKYVDSVKGRFTISRDNSKNTVYLQMNSLRAEDTAVYYCATGELELGQTYFDYWGQGTLVTVSS
# chain 2: DIQMTQSPSSVSASVEDRVTISCRASQSISTWLAWYQQKPGKAPKLLIYAASTLQSGVPSRFSGSGSGTDFTLTISSLQPEDFATYFCQQASDLFTFGPGTKVDIK
# B9: C5085 (protein)
# chain 1: QVQLVQSGAEVKKPGSSVKVSCKASGGTFSNYPISWVRQAPGQGLEWMGGIIPMFDAPRYAEKFQGRVTITADESTSTAYMELSSLRSEDTAVYYCARDVSSVTVVVSGPYKAAWTGYGMDVWGQGTTVTVSS
# chain 2: DIVMTQSPLSLPVTPGEPASISCRSSQSLLHGNGYNYLSWYLQKPGQSPQLLIYLGSNRASGVRDRFSGSGSGTDFTLKISRVEAEDVGVYYCMQTLQTPRTFGQGTKLEIK
# B10: C5091 (protein)
# chain 1: QLQLQESGPGLVKPSETLSLTCTVSGGSISSSGYYLGWIRQPPGKGLEWIGSLYYDGTTYYNPSLKSRVTISVDTSKNQFSLRLSSLSAADTAVFYCARHLGYSSSWYLPGIHGFDIWGQGTMVTVSS
# chain 2: QSVLTQPPSVSGAPGQRVTISCTGSSSNIGADYDVHWYQQLPGTAPKLLIYGNSNRPSGVPDRFSGSKSGTSASLAITGLQAEDEADYYCQSFDSSLSGLVFGGGTKLTVL
# B11: C5094 (protein)
# chain 1: QVQLVQSGAEVKKPGSSVKVSCKASGGTFINYSISWVRQAPGKGLEWMGRIIPILGSTTNAQNFQGRATITADKPTSTVYMELSSLRSEDTAVYYCARELDYIPDQTYYYYMDVWGEGTTVTVSS
# chain 2: DIQMTQSPSSLSAFVGDRVTITCRASQSIRTYLNWYQQKPGKAPKLLIYAASSLQSGVPSRFSGGGSGTDFTLTINSLQPEDFATYYCQQCYSTPPSFGGGTKVEIK
# B12: C5095 (protein)
# chain 1: QVQLQQWGAGLLKPSETLSLTCGIYGGSSDTYYWSWIRQPPGKGLEWIGEINQSGTTNYNPSLKSRVTMSLDTSKNEVSLKLSSVTAADTAMYYCAREIVVVVGVGVTALRYHSYMDVWGKGTTVTVSS
# chain 2: DIQMTQSPSSLSAFVGDRVTITCRASQSIRTYLNWYQQKPGKAPKLLIYAASSLQSGVPSRFSGGGSGTDFTLTINSLQPEDFATYYCQQCYSTPPSFGGGTKVEIK
# B13: C5032 (protein)
# chain 1: QVQLVQSGPEVKKPGTSVKVSCKASGFSFSVSSVQWVRQTRGQGLEWIGWIVVGSGRTDYAQKFQERVTITRDLSTSSVHMELRRLRSEDTAVYYCAAPTCDRTTCFDGFDLWGQGTMVTVSS
# chain 2: EIVLTQSPGTLSLSPGERATLSCRASQSISSSYLGWYQQKPGQAPRLLIYGASGRATGVPDRFSGSGSGTEFTLTISRLEPEDFAVYYCQQYGRSPWTFGQGTKVEIK
# B14: C5080 (protein)
# chain 1: QVQLVQSGAEVKKPGSSVKVSCKASGGPFSNYPFSWVRQAPGQGLEWMGRIIPALGVTNYAQKFQGRVTITADRSTRTGYMELSSLRSEDTAVYYCARTLGYSDYGASYYFDYWGQGTLVTVSS
# chain 2: QSVLTQPPSVSGAPGQRVTISCTGGNSNIAAGYDVHWYQQLPGTAPKLLIYRNTNRPSGVPDRFSGSKSDTSASLAITGLQAEDEADYYCQSYDSSLSGEVFGTGTKVTVL
# B15: C5081 (protein)
# chain 1: QVQLVQSGAEVKKPGSSVTVSCKASGGTFGSSSISWVRQAPGQGLEWMGRIIPVLGIPSYAQNLQGRVTITADKSTSTAYMELSSLRSQDTAVYFCAREVGYSDYGSNYYFDLWGRGTLVTVS
# chain 2: QSVLTQPPSVSGAPGQRVTISCTGSNSNIGAGYDVHWYQQLPGTAPKLLIYRNNIRPSGVPDRFSGSKSDTSASLAITGLQAEDEADYYCQSYDSSLSDSVFGGGTRLTVL
# Target: SARS-CoV-2 Omicron BA.1 spike pseudovirus
# Experiment: pseudovirus neutralization IC50; higher = weaker neutralization
# Procedure: (§1)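 Single-round luciferase reporter pseudovirus mixed with antibody dilutions and put on HT1080-ACE2 clone 14 cells for 48 h; signal relative to no-antibody wells, four-parameter fit.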
row,Binder,pseudovirus neutralization IC50 [µg/mL]
1,B1,0.148
2,B2,> 1
3,B3,> 1
4,B4,> 1
5,B5,> 1
6,B6,> 1
7,B7,> 1
8,B8,0.0507
9,B9,> 1
10,B10,> 1
11,B11,0.0804
12,B12,> 1
13,B13,0.00824
14,B14,0.132
15,B15,0.0333

# Target: SARS-CoV-2 Omicron BA.4/5 spike pseudovirus
# Experiment: as above
# Procedure: as §1
row,Binder,pseudovirus neutralization IC50 [µg/mL]
1,B1,> 1
2,B2,> 1
3,B3,> 1
4,B4,> 1
5,B5,> 1
6,B6,> 1
7,B7,> 1
8,B8,0.0522
9,B9,> 1
10,B10,> 1
11,B11,> 1
12,B12,> 1
13,B13,> 1
14,B14,> 1
15,B15,0.596

# Target: SARS-CoV-2 Wuhan-Hu-1 spike pseudovirus
# Experiment: as above
# Procedure: as §1
row,Binder,pseudovirus neutralization IC50 [µg/mL]
1,B1,0.000676
2,B2,0.00251
3,B3,> 1
4,B4,> 1
5,B5,> 1
6,B6,> 1
7,B7,> 1
8,B8,0.0269
9,B9,> 1
10,B10,> 1
11,B11,0.00326
12,B12,> 1
13,B13,0.00049
14,B14,0.0563
15,B15,0.0629

# Target: SARS-CoV-2 Wuhan-Hu-1 spike receptor-binding domain
# Experiment: ELISA binding EC50; higher = weaker binding; ELISA of recombinant human antibody on coated antigen, from 10 µg/ml in fourfold dilutions; four-parameter fit.
row,Binder,ELISA binding EC50 [µg/mL]
1,B1,0.00278
2,B2,0.00348
3,B3,0.00399
4,B4,0.00454
5,B5,0.00822
6,B6,0.0927
7,B7,0.00555
8,B8,0.00279
9,B9,0.00734
10,B10,0.00394
11,B11,0.00323
12,B12,0.0194
13,B13,0.0028
14,B14,0.00356
15,B15,0.00637
